# The supplement of paper PMC10441789
# The list shows a part of the results. Antibody binding of pooled human sera (four to six donors per pool; dilution not stated) to peptides of the Trypanosoma cruzi antigen TSSA on microarrays. Quantile-normalised fluorescence in arbitrary units, mean of duplicate arrays; higher = more binding. No active / inactive call. The uninfected pools are read here as the healthy donors of the same country. The strongest signals lie near the top of the scale (about 60,000).
# Legend:
# Test in all cases: antibody binding signal (normalised fluorescence) (arbitrary fluorescence units); higher = stronger serum antibody binding to peptide
# [1] = system: pooled sera of chronic Chagas disease patients, Argentina
# Experimental: (§1)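 Microarray of 15-residue peptides over residues 30-55 of Trypanosoma cruzi TSSAII, each with 1 to 10 substitutions at naturally variable positions, probed with one serum pool per country.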
# [2] = system: pooled sera of chronic Chagas disease patients, Bolivia
# Experimental: as §1
# [3] = system: pooled sera of chronic Chagas disease patients, Brazil
# Experimental: as §1
# [4] = system: pooled sera of chronic Chagas disease patients, Colombia
# Experimental: as §1
# [5] = system: pooled sera of chronic Chagas disease patients, Mexico
# Experimental: as §1
# [6] = system: pooled sera of chronic Chagas disease patients, USA
# Experimental: as §1
# [7] = system: pooled sera of uninfected people, Argentina
# Experimental: as §1
# [8] = system: pooled sera of uninfected people, Bolivia
# Experimental: as §1
# [9] = system: pooled sera of uninfected people, Brazil
# Experimental: as §1
# [10] = system: pooled sera of uninfected people, Colombia
# Experimental: as §1
# [11] = system: pooled sera of uninfected people, Mexico
# Experimental: as §1
# [12] = system: pooled sera of uninfected people, USA
# Experimental: as §1
Sequence,antibody binding signal [1],antibody binding signal [2],antibody binding signal [3],antibody binding signal [4],antibody binding signal [5],antibody binding signal [6],antibody binding signal [7],antibody binding signal [8],antibody binding signal [9],antibody binding signal [10],antibody binding signal [11],antibody binding signal [12]
KDNKTATGGTPSPPG,427,301,274,1810,333,494,298,159,197,223,113,135
PSGKDKKPAAGEAPS,5670,3180,6790,9710,7670,12900,148,629,118,115,64.1,109
KKTATGEAPSPSGAS,1780,4220,5060,160,342,13500,337,259,104,120,84.5,313
GKEKKTAAGEAPSQS,6600,1770,992,4140,4180,5390,146,110,92.4,246,84.8,75.7
TPPSGKEKKPAAGET,12500,465,856,632,41600,948,783,920,125,419,102,304
TDNKAAAGETPSPPG,202,173,11100,180,209,986,104,394,145,83.6,131,1290
GTEKKTATGETPSQS,973,754,2630,545,805,7510,271,571,238,114,157,132
NKAATGETPSPPGAS,1320,3220,24100,273,165,8790,480,1050,278,628,173,1950
GKEKKPATGGTPSPS,2400,485,541,1920,2660,3070,163,116,309,119,91.1,258
GTDKKPATGETPSPP,33400,23500,30200,7490,452,22500,175,522,211,261,1850,477
GKDKKPAAGEAPSPP,2470,534,8250,3950,3800,12100,121,73.4,107,112,75.8,89.4
EKKPATGEAPSQPGA,46600,47600,51200,433,434,42700,916,1100,399,284,480,934
NKPATGETPSPSGAS,19000,32400,33500,283,538,25600,440,1150,565,314,1510,1480
DKKPAAGEAPSQSGA,1060,7710,22700,145,234,15500,92.7,161,141,168,81.6,89.1
TPPSGKEKKPAAGGA,11100,231,332,752,37300,822,577,334,205,218,87.8,225
TDKKAATGGAPSQSG,1780,243,928,888,1570,1480,320,458,154,862,209,141
GKENKTATGETPSQP,9420,3000,34400,11200,11100,20300,518,277,276,175,424,227
TDKKAATGETPSQSG,1490,2420,16100,187,413,10400,256,192,227,453,279,151
GKDNKAAAGGAPSQP,392,193,3210,1330,816,630,180,340,118,143,78.8,114
TDKKTAAGETPSQSG,423,617,1370,312,320,1570,101,248,374,901,199,132
KDNKPATGETPSQPG,35000,22400,39500,395,268,24500,419,988,425,332,1610,180
TDNKAATGGAPSPPG,501,518,2030,497,370,1660,277,316,264,197,145,129
TEKKAATGETPSPSG,2270,2210,7960,324,443,11600,608,240,264,692,392,2510

Sequence,antibody binding signal [1],antibody binding signal [2],antibody binding signal [3],antibody binding signal [4],antibody binding signal [5],antibody binding signal [6],antibody binding signal [7],antibody binding signal [8],antibody binding signal [9],antibody binding signal [10],antibody binding signal [11],antibody binding signal [12]
TPPSGTDKKAAAGGT,17200,1930,28700,7010,39100,2510,294,200,1330,213,1200,172
SGKDKKPATGETPSQ,28200,6630,24000,556,562,19800,231,256,182,808,612,117
KEKKAATGEAPSPPG,11100,3090,18300,137,164,17700,344,74.4,99.8,182,77.8,113
PPSGTDKKPAAGGTP,30300,14500,40000,15300,48600,4120,830,417,1360,521,4070,511
SGKEKKTAAGGTPSQ,2420,295,2050,6630,4510,5240,138,124,412,109,169,120
TDNKPATGGAPSQSG,1790,18900,10100,325,440,2650,251,1060,433,210,403,173
DKKAATGGTPSPPGA,468,596,308,1170,669,1250,305,123,734,1090,97.4,161
TDKKAATGETPSPPG,1100,3130,14300,212,249,10400,723,209,254,673,198,1800
KDNKAATGEAPSPPG,23000,13400,33800,196,218,25200,358,1050,186,158,77.4,97
KDKKPAAGEAPSQSG,239,1230,8550,152,156,11300,103,89.7,194,81,83.7,92.8
GKEKKAAAGGAPSPP,825,246,257,3260,954,1100,96.7,80,113,92.8,88,106
SGTDKKTATGETPSP,317,806,1550,1280,273,8070,302,241,226,178,290,694
GTEKKTAAGGTPSPS,684,183,881,10300,617,2210,137,388,859,325,207,210
TEKKAATGEAPSQSG,24400,37300,30700,356,609,26200,645,176,243,766,298,285
GTDNKAAAGEAPSPS,170,681,35600,231,153,12400,155,590,1480,82,119,82.8
KDNKAAAGETPSQPG,1750,821,32400,239,227,1480,358,1800,181,234,115,138
KAATGGAPSQSGASS,655,195,373,207,693,236,409,168,112,102,914,164
KEKKAAAGGTPSPPG,180,226,133,2420,135,1210,111,64,1570,127,93,100
GTEKKTAAGGAPSPP,437,585,272,6650,939,1010,192,478,162,389,599,140
DKKTAAGGTPSQSGA,736,217,235,9310,440,1760,249,108,833,172,678,207
TDKKTATGGTPSQPG,1040,715,1050,4770,661,1640,559,127,348,877,1080,135
GKEKKAAAGGTPSPS,3800,198,193,3630,1800,1980,88.4,76.5,490,114,85.4,110
KEKKPATGGAPSPSG,434,333,259,636,2010,932,226,207,101,102,84,288
